Reference: PubChem BioAssay AID720709 (National Center for Advancing Translational Sciences (NCATS), 2013)
The whole screen tested about 360,000 compounds, of which about 520 (0.14%) were called active. Inconclusive results, whose numbers are uncertain, are shown with a selection of clear calls. Calls come from the whole dose curve; as a rule, active = well fitted inhibition curve with a large enough effect; inconclusive = small, poorly fitted or top-dose-only effect; inactive = no such curve, though single readings can be large or run the other way. Potencies of inconclusive entries are left out as doubtful fits.

molecular target: Rap guanine nucleotide exchange factor 3 (Homo sapiens) (UniProt O95398); assay: qHTS for Antagonist of cAMP-regulated guanine nucleotide exchange factor 3 (EPAC1): primary screen; settings: EPAC1 GEF assay, Rap1b-BODIPY-GDP exchange fluorescence; activity change, negative = inhibition: at 115 µM (top of the series); note: nearly all actives have a fitted effect of over 50% in size;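 for activity change, negative = inhibition: plate controls were vehicle for no effect and positive control for full effect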
Potency is the fitted concentration of half-maximal effect; tags give direction and shape of the fitted curve.

UniProt O95398, sequence (O95398 whole entry, looked up): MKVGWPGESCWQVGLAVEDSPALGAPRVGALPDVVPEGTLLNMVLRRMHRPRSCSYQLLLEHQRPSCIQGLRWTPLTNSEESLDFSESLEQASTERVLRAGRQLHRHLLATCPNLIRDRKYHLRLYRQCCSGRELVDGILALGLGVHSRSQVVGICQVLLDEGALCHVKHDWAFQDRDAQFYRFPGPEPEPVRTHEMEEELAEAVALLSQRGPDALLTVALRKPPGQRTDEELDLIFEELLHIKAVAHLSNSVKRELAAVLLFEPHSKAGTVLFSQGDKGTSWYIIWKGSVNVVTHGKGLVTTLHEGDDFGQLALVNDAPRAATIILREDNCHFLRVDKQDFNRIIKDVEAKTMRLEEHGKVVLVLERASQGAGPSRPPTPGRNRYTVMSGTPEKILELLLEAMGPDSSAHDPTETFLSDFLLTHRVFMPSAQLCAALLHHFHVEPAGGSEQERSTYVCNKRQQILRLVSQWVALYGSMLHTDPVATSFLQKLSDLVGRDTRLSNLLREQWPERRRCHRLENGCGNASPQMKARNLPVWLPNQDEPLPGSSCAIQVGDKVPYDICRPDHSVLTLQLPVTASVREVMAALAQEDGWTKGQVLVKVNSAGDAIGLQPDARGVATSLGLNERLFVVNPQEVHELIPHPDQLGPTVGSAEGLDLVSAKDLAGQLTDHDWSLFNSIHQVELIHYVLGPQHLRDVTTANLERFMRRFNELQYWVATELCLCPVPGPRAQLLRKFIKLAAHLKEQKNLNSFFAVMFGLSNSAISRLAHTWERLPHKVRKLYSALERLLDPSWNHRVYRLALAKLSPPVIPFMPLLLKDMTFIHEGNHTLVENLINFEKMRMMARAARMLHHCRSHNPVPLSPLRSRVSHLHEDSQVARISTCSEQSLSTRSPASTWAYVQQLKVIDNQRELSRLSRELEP

Row | SMILES | Potency | activity change, negative = inhibition
1 | Nc1ncnc2c1ncn2[C@@H]1O[C@H](C(=O)NS(=O)(=O)c2cccs2)[C@@H](O)[C@H]1O | inconclusive [inhibitor, single point] | 
2 | CCOC(=O)N1CCN(C(=S)NC(=O)C23CC4CC(CC(C4)C2)C3)CC1 | inconclusive [inhibitor, single point] | 
3 | CC(OC(=O)Cc1coc2cc3c(cc12)CCC3)C(=O)NC(N)=O (configuration not stated) | inconclusive [inhibitor, full curve, poor fit] | 
4 | CCOc1ccc(NC(=O)C2CCC(CNc3c(N4CCC(C)CC4)c(=O)c3=O)CC2)cc1 (configuration not stated) | inconclusive [inhibitor, full curve, poor fit] | 
5 | C/C=C/COC(=O)c1[nH]c2c(c1C)C(=O)CC(c1ccco1)C2 (configuration not stated) | inconclusive [inhibitor, single point] | 
6 | N#CCCN(C(=O)COC(=O)c1ccc(CNS(=O)(=O)c2ccc(F)c(Cl)c2)cc1)c1ccc(F)cc1 | inconclusive [inhibitor, partial curve] | 
7 | CCOc1ncccc1C(=O)OCC(=O)N(CC)c1ccccc1 | inconclusive [inhibitor, single point] | 
8 | O=C(CN1C(=O)NC2(CCCCC2)C1=O)Nc1ccc2c(c1)OCCCO2 | inconclusive [inhibitor, single point] | 
9 | Cc1nc(N2CCC(C)CC2)c2c(C)c(C(=O)Nc3cccc(C(F)(F)F)c3)sc2n1 | inconclusive [inhibitor, single point] | 
10 | Brc1cccc(-c2n[nH]c(-c3ccccc3)n2)c1 | inconclusive [inhibitor, partial curve] | 
11 | COCCN(C(=O)COC(=O)C1CC1)c1c(N)n(Cc2ccccc2)c(=O)[nH]c1=O | inactive | 
12 | COc1ccc(-n2c(NC(=O)c3ccco3)c(C#N)c3nc4ccccc4nc32)cc1 | inconclusive [inhibitor, partial curve, poor fit] | 
13 | CCN(CC)c1ccc(C(=O)Nc2ccccc2)cc1[N+](=O)[O-] | inconclusive [inhibitor, single point] | 
14 | COC(=O)CCC(=O)OC1(C)C(=O)C=C2C=C(c3ccsc3)OC=C2C1=O (configuration not stated) | inconclusive [inhibitor, full curve] | 
15 | CC1CCN(c2ccc3c(c2)S(=O)(=O)c2cccc(C(=O)NC[C@@H]4CCCO4)c2C3=O)CC1 | inactive | 
16 | Cc1cc(O)ccc1N=Cc1c(C(F)(F)F)[nH][nH]c1=O | inactive | 
17 | O=S(=O)(NCCSc1ccccn1)c1ccc(Br)cc1 | inconclusive [inhibitor, full curve, poor fit] | 
18 | CCN(CC)C(=O)CSC(Nc1cccc(F)c1)=C(C#N)C#N | inconclusive [inhibitor, single point] | 
19 | CCc1cc(C(=O)OC)c(NC(=O)c2ccoc2C)s1 | inactive | 
20 | CCOc1ccccc1OCC(=O)NN=C1CCCC(=O)C1 | inactive | 
21 | O=C(N/N=C/C=C/c1ccco1)/C(=C/c1ccccc1)NC(=O)c1ccccc1 | inconclusive [inhibitor, partial curve] | 
22 | CCOc1ccc(-c2c(C(=O)N/N=C/c3ccc(C)s3)nnn2-c2nonc2N)cc1 | inconclusive [inhibitor, partial curve, poor fit] | 
23 | CCCOc1ccc(/C(O)=C2\C(=O)C(=O)N(c3ccccn3)C2c2ccccc2F)cc1C (configuration not stated) |  | inconclusive: -19.1% [inhibitor]

Row | SMILES | Potency | activity change, negative = inhibition
24 | CN1CCC(C)(C(=O)Nc2cccc3c2CCCC3)C1 (configuration not stated) | inactive | 
25 | C/C(=N\NC(=O)c1cccc(N/N=C(\C)c2ccco2)c1)c1ccco1 | inconclusive [inhibitor, single point] | 
26 | CCOc1ccc(OCC(=O)Nc2ccc(S(N)(=O)=O)cc2)cc1 | inconclusive [inhibitor, single point] | 
27 | CCN1CCN(c2ccc(S(=O)(=O)N3CCCCC3)cc2NC(=O)/C=C/c2ccc(F)cc2)CC1 | inactive | 
28 | N#C/C(=N\Nc1ccc(S(=O)(=O)N2CCCCC2)cc1)C(N)=S | inconclusive [inhibitor, single point] | 
29 | COc1ccc(OC)c(Nc2nc(=O)c3cccnc3s2)c1 | inconclusive [inhibitor, single point] | 
30 | CC1CCC/C=C/C(=O)c2c(O)cc(O)cc2CC(=O)O1 (configuration not stated) | inconclusive [inhibitor, partial curve] | 
31 | CC(C)Oc1ccc(F)cc1-c1cc(C(=O)NCc2ccc(C(F)(F)F)cc2)[nH]n1 | inconclusive [inhibitor, partial curve] | 
32 | Cc1cccc(CCNS(=O)(=O)c2ccc3c(c2)NC(=O)C(C)S3)c1 (configuration not stated) | inconclusive [inhibitor, partial curve] | 
33 | O=C(Nc1cc(S(=O)(=O)N2CCOCC2)ccc1N1CCCCC1)c1cc(-c2ccccn2)nc2ccccc12 | inactive | 
34 | CCCN(CCC)c1nc(Cl)nc(NCc2ccco2)n1 | inconclusive [inhibitor, partial curve] | 
35 | O=c1[nH]c2cccnc2n1-c1ccc([N+](=O)[O-])cc1 | inconclusive [inhibitor, full curve, poor fit] | 
36 | NS(=O)(=O)c1ccc(NC(=O)COC(=O)c2ccc([N+](=O)[O-])s2)cc1 | inconclusive [inhibitor, partial curve, poor fit] | 
37 | FC(F)(F)c1nnc(-c2ccccc2)nc1Sc1ccccc1 | inconclusive [inhibitor, single point] | 
38 | CC1(C)CC(=O)c2c(O)cc(OCc3ccc(Br)cc3)cc2O1 | inactive | 
39 | O=C(c1cccs1)N(c1ccc(Br)cc1)C1C=CS(=O)(=O)C1 (configuration not stated) | inconclusive [inhibitor, full curve, poor fit] | 
40 | CSc1ccccc1C(=O)Nc1cc([N+](=O)[O-])ccc1C | inconclusive [inhibitor, partial curve] | 
41 | Oc1ccc(/C=N/Nc2ncc(Cl)cc2Cl)cc1 | inactive | 
42 | CC(C)C(=O)Nc1cccc(COc2cccc(CN(Cc3ccccc3)C(=O)OC(C)(C)C)c2)c1 | inactive | 
43 | CC1CN(S(=O)(=O)c2ccc(CN3C(=O)c4cccnc4C3=O)s2)c2ccccc2O1 (configuration not stated) | inactive | 
44 | CC(c1ccccc1)n1c(S(=O)(=O)O)nc2ccccc21 (configuration not stated) | inconclusive [inhibitor, full curve, poor fit] | 
45 | O=C(c1cnn2c1NC(c1ccc(Br)cc1)CC2C(F)(F)F)N1CCN(C23CC4CC(CC(C4)C2)C3)CC1 (configuration not stated) | inconclusive [inhibitor, partial curve] | 
46 | CCCCCCSc1nnc(-c2cnn(-c3ccccc3)c2-n2cccc2)n1C | inconclusive [inhibitor, partial curve, poor fit] | 

Row | SMILES | Potency | activity change, negative = inhibition
47 | CCCCOc1ccc(C(=O)NC)cc1 | inactive | 
48 | CCOc1ccccc1NC(=O)COC(=O)C1CC1 | inconclusive [inhibitor, full curve, poor fit] | 
49 | CCCCC[C@H](O)/C=C/[C@@H]1[C@@H](C/C=C\CCCC(=O)OC)[C@@H](O)C[C@H]1O | inconclusive [inhibitor, partial curve, poor fit] | 
50 | Cc1ccc(NC(=O)CN2C(=O)N/C(=C\c3cccn3-c3cccc(C(=O)O)c3)C2=O)cc1 | inconclusive [inhibitor, partial curve, poor fit] | 
51 | CC(C)n1c(NCc2nc3ccccc3n2C)nc2ccccc21 | inactive | 
52 | S=C1Cc2ccccc2N1 | inconclusive [inhibitor, partial curve, poor fit] | 
53 | CC(C)(C)OC(=O)N1CCC[C@H]1c1nnc(SCC(=O)Nc2cccc(Cl)c2)o1 | inconclusive [inhibitor, single point] | 
54 | COc1ccc(C2=NN(C(=O)c3ccccc3C(=O)O)C(c3ccccc3O)C2)cc1 (configuration not stated) | inactive | 
55 | COc1ccc(CN(C)C(=O)c2ccccc2Sc2ccccc2C#N)c(OC)c1 | inconclusive [inhibitor, single point] | 
56 | O=S1(=O)N=C(N(Cc2cccs2)c2ccc(O)cc2)c2ccccc21 | inconclusive [inhibitor, single point] | 
57 | Cc1c(-c2ccccc2)sc(N)c1C(=O)N1CCOCC1 | inconclusive [inhibitor, single point] | 
58 | O=C(CN1C(=O)NC2(CCc3ccccc32)C1=O)c1c[nH]c2ccccc12 (configuration not stated) | inconclusive [inhibitor, partial curve] | 
59 | C/C(=N\NC(=O)c1cccs1)c1cccnc1 | inactive | 
60 | Cc1ccc2[nH]cc(S(=O)(=O)c3ccc(C)c(C)c3)c(=O)c2c1 | inconclusive [inhibitor, single point] | 
61 | COc1ccc(N=Nc2ccc(CO)cc2)cc1 | inactive | 
62 | CC(C)c1ccc(NC(=O)NC(C)c2ccc3c(c2)OCO3)cc1 (configuration not stated) | inconclusive [inhibitor, partial curve] | 
63 | CC(C)(C)C(=O)[C@@H]1[C@@H]2C(=O)N(C3CCCCC3)C(=O)[C@@H]2[C@H]2c3ccccc3C=CN12 | inactive | 
64 | COc1nc2ccccc2nc1CCC(=O)O | inconclusive [inhibitor, full curve, poor fit] | 
65 | N#Cc1c(N)sc(=S)c2c1CCCCC2 | inactive | 
66 | CCOC(=O)c1oc2nc3c(cc2c1N)COC(C)(C)C3 | inactive | 
67 | COC(=O)c1ccc(C2c3[nH]c4ccccc4c3C[C@H]3C(=O)N(C4CCN(Cc5ccccc5)CC4)CC(=O)N23)cc1 (some centres not stated) | inconclusive [inhibitor, single point] | 
